Experimental findings from patent publication US11618753B2 (priority 2018, dated 2023) are described below.

In this assay the test system is MLKL phosphorylation, HT29-L23 human colorectal adenocarcinoma cells. Briefly: cells. The note with it: read-out: pMLKL HCS Cell Assay (IC50, uM).
What is called IC50 is the concentration that inhibits the measured activity by half. Consider `COc1ncc(-c2cc(C(F)(F)F)c3c(N)ncnn23)cc1C(=O)NC1CN(Cc2cccnc2)CC1F` (racemic) [Example 203, 5-[4-amino-5-(trifluoromethyl)pyrrolo[2,1-f][1,2,4]triazin-7-yl]-N-{4-fluoro-1-[(pyridin-3-yl)methyl]pyrrolidin-3-yl}-2-methoxypyridine-3-carboxamide], for which the IC50 was 0.014 µM. Then `COc1ncc(-c2cc(C(F)(F)F)c3c(N)ncnn23)cc1C(=O)N[C@H]1CCC[C@@H](c2ccc(F)cc2)C1` (racemic) [Example 1696, 5-(4-amino-5-(trifluoromethyl)pyrrolo[2,1-f][1,2,4]triazin-7-yl)-N-((1SR,3RS)-3-(4-fluorophenyl)cyclohexyl)-2-methoxynicotinamide], with 0.0093 µM; and `CCc1ccc(-c2cc(C(F)(F)F)c3c(N)ncnn23)cc1C(=O)N[C@@H]1CN(C(=O)CC(C(F)(F)F)C(F)(F)F)C[C@@H]1F` [Example 966, 5-[4-amino-5-(trifluoromethyl)pyrrolo[2,1-f][1,2,4]triazin-7-yl]-2-ethyl-N-[(3R,4S)-4-fluoro-1-[4,4,4-trifluoro-3-(trifluoromethyl)butanoyl]pyrrolidin-3-yl]benzamide], with 0.0056 µM; and `COc1ncc(-c2cc(Cn3cnc(C)c3)c3c(N)ncnn23)cc1C(=O)N[C@@H]1CN(C(=O)C2CC(F)(F)C2)C[C@@H]1F` [Example 1705, 5-(4-amino-5-((4-methyl-1H-imidazol-1-yl)methyl)pyrrolo[2,1-f][1,2,4]triazin-7-yl)-N-((3R,4S)-1-(3,3-difluorocyclobutane-1-carbonyl)-4-fluoropyrrolidin-3-yl)-2-methoxynicotinamide], with 0.15 µM. The figure for `Cc1ncc(-c2cc(C(F)(F)F)c3c(N)ncnn23)cc1C(=O)Nc1cn(Cc2cc(OC(F)(F)F)ccc2F)cn1` [Example 1778, 5-(4-amino-5-(trifluoromethyl)pyrrolo[2,1-f][1,2,4]triazin-7-yl)-N-(1-(2-fluoro-5-(trifluoromethoxy)benzyl)-1H-imidazol-4-yl)-2-methylnicotinamide] is 0.012 µM. The figure for `Cc1cc(-c2cc(C(F)(F)F)c3c(N)ncnn23)cc(C(=O)N[C@@H]2CN(C(=O)C3(F)CC3)C[C@@H]2F)c1Cl` [Example 715, 5-[4-amino-5-(trifluoromethyl)pyrrolo[2,1-f][1,2,4]triazin-7-yl]-2-chloro-N-[(3R,4S)-4-fluoro-1-(1-fluorocyclopropanecarbonyl)pyrrolidin-3-yl]-3-methylbenzamide] is 0.124 µM. For the compound `Nc1ncnn2c(-c3cc(F)c(F)c(C(=O)N[C@@H]4CN(C(=O)C5CCC(F)(F)C5)C[C@@H]4F)c3)cc(C(F)(F)F)c12` (stereo partly drawn) [Example 1333, 5-[4-amino-5-(trifluoromethyl)pyrrolo-[2,1-f][1,2,4]triazin-7-yl]-N-[(3R,4S)-1-(3,3-difluorocyclopentanecarbonyl)-4-fluoropyrrolidin-3-yl]-2,3-difluoro-benzamide], the IC50 amounted to 0.015 µM. For the compound `CC(C)(C)CC(=O)N1C[C@H](F)[C@H](NC(=O)c2cccc(-c3cc(C(F)(F)F)c4c(N)ncnn34)c2)C1` [Example 90, 3-[4-amino-5-(trifluoromethyl)pyrrolo[2,1-f][1,2,4]triazin-7-yl]-N-[(3R,4S)-1-(3,3-dimethylbutanoyl)-4-fluoropyrrolidin-3-yl]benzamide], the IC50 is 0.013 µM. Then `COc1ncc(-c2cc(C(F)(F)F)c3c(N)ncnn23)cc1C(=O)NC1CN(Cc2ccccc2C#N)CC1F` (racemic) [Example 214, 5-[4-amino-5-(trifluoromethyl)pyrrolo[2,1-f][1,2,4]triazin-7-yl]-N-{1-[(2-cyanophenyl)methyl]-4-fluoropyrrolidin-3-yl}-2-methoxypyridine-3-carboxamide], with 0.026 µM; and `COc1ncc(-c2cc(C(F)(F)F)c3c(N)ncnn23)cc1C(=O)N[C@@H]1CN(C2CCc3cc(F)ccc32)C[C@@H]1F` (mixture of isomers) [Example 1356, 5-[4-amino-5-(trifluoromethyl)-pyrrolo[2,1-f][1,2,4]triazin-7-yl]-N-[(3R,4S)-4-fluoro-1-(5-fluoro-2,3-dihydro-1H-inden-1-yl)pyrrolidin-3-yl]-2-methoxypyridine-3-carbox-amide], with 0.042 µM; and `COc1ncc(-c2cc(Cl)c3c(N)ncnn23)cc1C(=O)Nc1cnn(Cc2ccccc2)c1` [Example 33, 5-{4-amino-5-chloropyrrolo[2,1-f][1,2,4]triazin-7-yl}-N-(1-benzyl-1H-pyrazol-4-yl)-2-methoxypyridine-3-carboxamide], with 0.034 µM. Then `COCc1cc(-c2cnc(OC)c(C(=O)Nc3cnn(Cc4ccccc4)c3)c2)n2ncnc(N)c12` [Example 49, 5-(4-amino-5-(methoxymethyl)pyrrolo[2,1-f][1,2,4]triazin-7-yl)-N-(1-benzyl-1H-pyrazol-4-yl)-2-methoxynicotinamide], with 0.00046 µM. The figure for `COc1ncc(-c2cc(C(F)(F)F)c3c(N)ncnn23)cc1C(=O)N[C@@H]1CN(C(C)c2ccccc2O)C[C@@H]1F` (stereo partly drawn) [Example 1392, 5-[4-amino-5-(trifluoromethyl)-pyrrolo[2,1-f][1,2,4]triazin-7-yl]-N-[(3R,4S)-4-fluoro-1-[1-(2-hydroxyphenyl)ethyl]-pyrrolidin-3-yl]-2-methoxy-pyridine-3-carboxamide] is 0.0033 µM.

`CC(C)CC(=O)N1C[C@H](F)[C@H](NC(=O)c2cc(-c3cc(C(F)(F)F)c4c(N)ncnn34)ccc2CF)C1` [Example 909, 5-[4-amino-5-(trifluoromethyl)pyrrolo[2,1-f][1,2,4]triazin-7-yl][(3R,4S)-4-fluoro-1-(3-methylbutanoyl)pyrrolidin-3-yl]-2-(fluoromethyl)benzamide]: the IC50 stood at 0.0056 µM.

Turning to `Cc1ccc(-c2cc(CN3CCC(C(F)(F)F)CC3)c3c(N)ncnn23)cc1C(=O)N[C@@H]1CN(C(=O)OCC(F)(F)F)C[C@@H]1F` [Example 1574, 2,2,2-trifluoroethyl (3R,4S)-3-[5-(4-amino-5-{[4-(trifluoromethyl)piperidin-1-yl]methyl}pyrrolo[2,1-f][1,2,4]triazin-7-yl)-2-methylbenzamido]-4-fluoropyrrolidine-1-carboxylate], the IC50 is 0.00061 µM.

Regarding `CCC(O)(C(=O)N1C[C@H](F)[C@H](NC(=O)c2cc(-c3cc(C(F)(F)F)c4c(N)ncnn34)ccc2C(F)(F)F)C1)C(F)(F)F` (stereo partly drawn) [Example 899, 5-[4-amino-5-(trifluoromethyl)pyrrolo[2,1-f][1,2,4]triazin-7-yl]-N-[(3R,4S)-4-fluoro-1-[2-hydroxy-2-(trifluoromethyl)butanoyl]pyrrolidin-3-yl]-2-(trifluoromethyl)benzamide], the IC50 was determined as 0.048 µM. As to `COc1ncc(-c2cc(C(F)(F)F)c3c(N)ncnn23)cc1C(=O)N[C@@H]1CN(C(=O)C(N)C(F)(F)F)C[C@@H]1F` (stereo partly drawn) [Example 1673, N-((3R,4S)-1-(2-amino-3,3,3-trifluoropropanoyl)-4-fluoropyrrolidin-3-yl)-5-(4-amino-5-(trifluoromethyl)pyrrolo[2,1-f][1,2,4]triazin-7-yl)-2-methoxynicotinamide], the IC50 came to 0.036 µM. As for `CC(C)C(=O)N1C[C@H](F)[C@H](NC(=O)c2cc(F)cc(-c3cc(C(F)(F)F)c4c(N)ncnn34)c2)C1` [Example 600, 3-[4-amino-5-(trifluoromethyl)pyrrolo[2,1-f][1,2,4]triazin-7-yl]-5-fluoro-N-[(3R,4S)-4-fluoro-1-(2-methylpropanoyl)pyrrolidin-3-yl]benzamide], the IC50 amounted to 0.072 µM. The figure for `COc1ncc(-c2cc(C(=O)N3CC4(COC4)C3)c3c(N)ncnn23)cc1C(=O)N1CCC[C@@H](Cc2ccc(F)cc2)C1` [Example 466, 7-{5-[(3S)-3-[(4-fluorophenyl)methyl]piperidine-l-carbonyl]-6-methoxypyridin-3-yl}-5-{2-oxa-6-azaspiro[3.3]heptane-6-carbonyl}pyrrolo[2,1-f][1,2,4]triazin-4-amine] is 0.116 µM; for `Cc1c(F)cc(-c2cc(C(F)(F)F)c3c(N)ncnn23)cc1C(=O)N[C@@H]1CN(C(=O)c2c(F)cncc2F)C[C@@H]1F` [Example 1325, 5-[4-amino-5-(trifluoromethyl)pyrrolo-[2,1-f][1,2,4]triazin-7-yl]-N-[(3R,4S)-1-(3,5-difluoropyridine-4-carbonyl)-4-fluoropyrrolidin-3-yl]-3-fluoro-2-methylbenzamide] it is 0.0029 µM; for `Nc1ncnn2c(-c3cccc(C(=O)N[C@@H]4CN(C(=O)C5CC5(F)F)C[C@@H]4F)c3)cc(C(F)(F)F)c12` (stereo partly drawn) [Example 107, 3-[4-amino-5-(trifluoromethyl)pyrrolo[2,1-f][1,2,4]triazin-7-yl]-N-[(3R,4S)-1-(2,2-difluorocyclopropanecarbonyl)-4-fluoropyrrolidin-3-yl]benzamide] it is 0.05 µM.

For the compound `COc1ncc(-c2cc(C(F)(F)F)c3c(N)ncnn23)cc1C(=O)N1CCC(Cc2ccccc2)C1` (stereo not shown) [Example 124, 7-[5-(3-benzylpyrrolidine-1-carbonyl)-6-methoxypyridin-3-yl]-5-(trifluoromethyl)pyrrolo[2,1-f][1,2,4]triazin-4-amine], the IC50 worked out at 0.388 µM.

For `COc1ncc(-c2cc(C(F)(F)F)c3c(N)ncnn23)cc1C(=O)N[C@@H]1CN(C(=O)C2(O)CC2)C[C@@H]1F` [Example 320, 5-[4-amino-5-(trifluoromethyl)pyrrolo[2,1-f][1,2,4]triazin-7-yl]-N-[(3R,4S)-4-fluoro-1-(1-hydroxy-cyclopropanecarbonyl)pyrrolidin-3-yl]-2-methoxypyridine-3-carboxamide], the IC50 stood at 0.123 µM. Then `CCC(O)(C(=O)N1C[C@H](F)[C@H](NC(=O)c2c(C)ccc(-c3cc(C(F)(F)F)c4c(N)ncnn34)c2F)C1)C(F)(F)F` (stereo partly drawn) [Example 745, 3-[4-amino-5-(trifluoromethyl)pyrrolo[2,1-f][1,2,4]triazin-7-yl]-2-fluoro-N-[(3R,4S)-4-fluoro-1-[2-hydroxy-2-(trifluoromethyl)butanoyl]pyrrolidin-3-yl]-6-methylbenzamide], with 0.0049 µM. Turning to `Cc1cc(F)c(-c2cc(C(F)(F)F)c3c(N)ncnn23)cc1C(=O)N[C@@H]1CN(C(=O)C(C)C)C[C@@H]1F` [Example 793, 5-[4-amino-5-(trifluoromethyl)pyrrolo[2,1-f][1,2,4]triazin-7-yl]-4-fluoro-N-[(3R,4S)-4-fluoro-1-(2-methylpropanoyl)pyrrolidin-3-yl]-2-methylbenzamide], the IC50 worked out at 0.0044 µM.
